Among all 390,000 compounds or so, about 17,000 (4.4%) were called active. This list was built around the results that the source calls inconclusive (neither active nor inactive); the mix of calls is not that of the screen. The call rests on the fitted dose curve; in most records, active means well fitted inhibition curve with a large enough effect; inconclusive means small, poorly fitted or top-dose-only effect; inactive means no such curve, though single readings can be large or run the other way. A potency beside an inconclusive call is a rough fit, not a confirmed value.
The compounds below were run against Lysine-specific demethylase 4A (Homo sapiens) (UniProt O75164) (assay: qHTS Assay for Inhibitors of JMJD2A-Tudor Domain). Conditions: AlphaScreen JMJD2A-Tudor / H3K4me3 peptide binding; activity change, negative = inhibition: at 114 µM (top of the series).
Chain of UniProt O75164 (O75164 whole entry, looked up, the tested form may be a part): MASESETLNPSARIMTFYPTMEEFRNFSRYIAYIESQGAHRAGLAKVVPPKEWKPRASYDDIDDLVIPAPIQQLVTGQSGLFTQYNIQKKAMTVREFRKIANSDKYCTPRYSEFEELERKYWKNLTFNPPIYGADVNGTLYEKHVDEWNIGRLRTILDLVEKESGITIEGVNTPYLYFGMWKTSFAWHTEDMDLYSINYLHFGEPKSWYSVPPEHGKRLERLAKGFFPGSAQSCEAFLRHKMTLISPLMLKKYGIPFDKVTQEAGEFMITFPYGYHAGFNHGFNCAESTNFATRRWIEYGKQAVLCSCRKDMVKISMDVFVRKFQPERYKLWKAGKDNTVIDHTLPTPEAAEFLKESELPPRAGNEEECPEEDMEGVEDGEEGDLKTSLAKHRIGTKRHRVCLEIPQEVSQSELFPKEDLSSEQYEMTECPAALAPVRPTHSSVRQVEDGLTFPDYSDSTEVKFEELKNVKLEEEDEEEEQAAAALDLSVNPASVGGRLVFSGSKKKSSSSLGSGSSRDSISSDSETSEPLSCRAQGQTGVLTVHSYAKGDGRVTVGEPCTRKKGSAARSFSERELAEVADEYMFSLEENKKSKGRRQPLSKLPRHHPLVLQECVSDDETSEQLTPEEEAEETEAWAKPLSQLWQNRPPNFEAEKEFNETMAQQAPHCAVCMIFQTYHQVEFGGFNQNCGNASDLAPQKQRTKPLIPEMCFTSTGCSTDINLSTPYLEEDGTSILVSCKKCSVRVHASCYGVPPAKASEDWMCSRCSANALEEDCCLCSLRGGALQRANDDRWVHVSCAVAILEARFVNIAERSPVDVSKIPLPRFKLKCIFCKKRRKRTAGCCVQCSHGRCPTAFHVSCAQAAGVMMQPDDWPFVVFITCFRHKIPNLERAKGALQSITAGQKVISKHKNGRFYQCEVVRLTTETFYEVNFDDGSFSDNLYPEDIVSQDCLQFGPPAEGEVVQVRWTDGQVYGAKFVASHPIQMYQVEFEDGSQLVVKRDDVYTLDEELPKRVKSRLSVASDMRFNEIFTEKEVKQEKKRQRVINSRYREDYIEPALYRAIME
Further: nearly all actives have a fitted effect of over 50% in size.
On the % scale 0 is the no-effect control and ±100 the full control effect; potency means the concentration at half of the fitted maximal effect; tags describe the fitted curve by direction and shape.

Potency, inconclusive:
COc1ccc(N2CCN(CC(=O)Nc3ccc(SC(F)F)cc3)CC2)cc1 56.2 µM [inhibitor, partial curve]
O=C1CCN(CCc2ccccc2)CCN1[C@H](COc1ccccc1)c1ccccc1 56.2 µM [inhibitor, partial curve]
CC(C)CNC(=O)c1ccc(C2SCC(=O)N2Cc2ccccc2)cc1 (stereo unspecified) 35.5 µM [inhibitor, single point]
O=C1NC(c2cccs2)Nc2ccccc21 (stereo unspecified) 3.16 µM [inhibitor, single point]
CCn1c(SCc2ccc(F)cc2)nc2c(c1=O)SCC2 89.1 µM [inhibitor, partial curve]
O=C(O)[C@H](CSCc1ccccc1)NS(=O)(=O)c1ccc(F)cc1 28.2 µM [inhibitor, single point]
C[n+]1c(-c2ccccc2)sc([S-])c1-c1ccccc1 50.1 µM [inhibitor, partial curve]
CC(=O)Nc1ccc(/C(C)=N/NC(=O)c2ccc(COc3ccccc3Cl)o2)cc1 63.1 µM [inhibitor, partial curve]
CCN(CC)CCN1C(=O)Cn2c(C)c(C)c3cccc1c32 50.1 µM [inhibitor, partial curve]
CCCC(C(=O)O)N1C(=O)/C(=C2\C(=O)N(C)c3ccccc32)SC1=S (stereo unspecified) 50.1 µM [inhibitor, partial curve]
Cc1ccc(CSc2oc(-c3ccco3)nc2S(=O)(=O)c2ccc(Br)cc2)cc1 79.4 µM [inhibitor, partial curve]
COCCCN(C(=O)c1cc(C)oc1C)c1c(N)n(CC(C)C)c(=O)[nH]c1=O 89.1 µM [inhibitor, single point]
Nc1n[nH]c(N)c1N=Nc1cccc(C(F)(F)F)c1 44.7 µM [inhibitor, partial curve]
Cc1nn(Cc2ccccc2Cl)c(C)c1NC(=O)c1nc2ncccn2n1 89.1 µM [inhibitor, single point]
COc1ccc(C(=O)CC(Nc2ccc([N+](=O)[O-])cc2)c2ccc(OC)cc2)cc1 (stereo unspecified) 4.47 µM [inhibitor, full curve]
COc1ccc(N2CCN(C(=O)c3ccc(NC(=O)c4nsc5ccccc45)cc3)CC2)cc1 11.2 µM [inhibitor, full curve]
Cc1ccccc1-n1c(C)nnc1SCc1cc(=O)oc2ccc3ccccc3c12 79.4 µM [inhibitor, partial curve]
N#CCC(=O)NNc1c([N+](=O)[O-])cc(C(F)(F)F)cc1[N+](=O)[O-] 63.1 µM [inhibitor, partial curve]
Nc1nc(-c2ccc(Cl)cc2)c(N=Nc2ccc(S(=O)(=O)N3CCOCC3)cc2)s1 4.47 µM [inhibitor, full curve]
COc1ccc2[nH]c3c(c2c1)CCN1C(=O)N([C@@H](C)C(=O)NCCc2ccc(OC)c(OC)c2)C(=O)[C@]31C 50.1 µM [inhibitor, partial curve]
Cc1ccc(C(=O)N2CCN(c3ccc([N+](=O)[O-])c(NCc4cccnc4)c3)CC2)cc1 39.8 µM [inhibitor, partial curve]
Cc1ccc(-n2nc3ccc(NC(=O)/C=C/c4ccco4)cc3n2)cc1C 44.7 µM [inhibitor, partial curve]
CC(NC(=O)C1CCN(C(=O)N2CCOc3ccc(Cl)cc32)CC1)c1ccccc1 (stereo unspecified) 89.1 µM [inhibitor, partial curve]
O=C(CCc1nnc2ccc(N3CCC4(CC3)OCCO4)nn12)Nc1ccc(F)cc1 15.8 µM [inhibitor, partial curve, poor fit]
CCOc1ccc(C(=O)NC(=S)Nc2ccccc2OC)cc1[N+](=O)[O-] 89.1 µM [inhibitor, single point]
CS(=O)(=O)c1ccc(-c2sc3cc4c(cc3c2C(=O)NN2CCOCC2)OCO4)cc1 50.1 µM [inhibitor, partial curve]
COc1ccc(C(=S)Nc2ccc(N(C)C)cc2)cc1 28.2 µM [inhibitor, partial curve, poor fit]
Cc1ccc(NC(=O)Cn2cnc3ccccc32)cc1C 25.1 µM [inhibitor, full curve]
Cc1ccccc1C(=O)Nc1ccnn1C1CCN(Cc2ccccn2)CC1 31.6 µM [inhibitor, partial curve]
CC(=O)Nc1ccc(S(=O)(=O)NCc2ccc3[nH]c(C)cc3c2)cc1 56.2 µM [inhibitor, partial curve]
CCOC(=O)C1CCN(C(=O)c2ccc3c(c2)NC(=O)/C(=C/c2ccccc2)S3)CC1 44.7 µM [inhibitor, partial curve]
COc1cc(O)c(C(CCN2CCCC2)c2cc(OC)c(OC)c(OC)c2)c(OC)c1 (stereo unspecified) 56.2 µM [inhibitor, partial curve]
Cc1[nH]n(C2=NCCS2)c(=O)c1N=Nc1ccccc1 63.1 µM [inhibitor, partial curve, poor fit]
O=C(c1ccc([N+](=O)[O-])cc1)n1nc(-c2ccccc2)nc1NCc1ccc(F)cc1 39.8 µM [inhibitor, single point]
CC(C)CN(C(=O)COC(=O)Cc1c[nH]c2ccccc12)C1CCS(=O)(=O)C1 (stereo unspecified) 39.8 µM [inhibitor, single point]
O=C(C1=C(O)C(=O)N(c2ncccn2)C1c1ccc(F)cc1)c1ccco1 (stereo unspecified) 79.4 µM [inhibitor, single point]
Nc1nn(-c2ccccc2)c(N)c1N=Nc1ccccc1 39.8 µM [inhibitor, partial curve]
COc1ccc(OC)c2sc(N3CCN(c4ccccc4)CC3)nc12 11.2 µM [inhibitor, full curve, poor fit]
COCC(C)n1c(-c2ccc3c(c2)NC(=O)CO3)csc1=Nc1ccc(OC(F)F)cc1 (stereo unspecified) 63.1 µM [inhibitor, partial curve, poor fit]
COC(=O)c1cc(S(=O)(=O)Nc2cc(OC)cc(OC)c2)c[nH]1 25.1 µM [inhibitor, full curve, poor fit]
CC(=O)Nc1cccc(NC(=O)CSc2ncc(-c3ccc(Cl)cc3)n2Cc2ccco2)c1 3.16 µM [inhibitor, single point]
COC(=O)C1=C(C)NC(C)=C(C(=O)OC)C1c1ccc(-c2cccc([N+](=O)[O-])c2)o1 35.5 µM [inhibitor, partial curve]
CC(C)(C)c1ccc(-c2nc(SCCOc3ccc(Cl)cc3)n3[nH]c(=O)cc3n2)cc1 31.6 µM [inhibitor, partial curve]
CCCCC1=CC2=C(c3ccco3)C(=O)C(C)(OC(=O)c3ccc(OC)cc3)C(=O)C2=CN1CCc1ccccn1 (stereo unspecified) 56.2 µM [inhibitor, partial curve]

Potency, active:
COCCOc1ccc(C(F)(F)F)cc1Nc1nc2ccccc2o1 28.2 µM
CCn1cc(C(=O)O)c(=O)c2cc(S(=O)(=O)N(C)C)ccc21 20 µM
CCOc1ccc(N)c(SSc2cc(OCC)ccc2N)c1 12.6 µM
N#C/C(=C\c1cccs1)C(=O)NCc1ccccc1 39.8 µM
CC(C)(C)c1ccc(OCCNCc2ccccc2)cc1 2.24 µM
COC(=O)c1ccccc1NC(=O)CC(NCc1ccccc1)C(=O)O (stereo unspecified) 28.2 µM

Potency, inactive:
COc1ccc(C(=O)N2CCCC(C(=O)O)C2)c2ccccc12 (stereo unspecified)
COc1ccccc1NC(=O)CSc1nnc(-c2nonc2NC(C)=O)n1-c1ccccc1
CC(C)(C)c1ccc(C(=O)Nc2cc(-c3ccccc3)nn2-c2ccccc2)cc1
COc1cccc(CN(C)C(=O)CSCC(=O)Nc2ccc(C)cc2)c1OC
COc1ccc(C2Nc3ccc(NC(C)=O)cc3C(=O)N2Cc2ccccc2)cc1COc1ccc(NC(C)=O)cc1 (stereo unspecified)
Cc1oc(=O)c(NC(=O)c2ccccc2)cc1C(=O)c1ccccc1
N#Cc1ccccc1NC(=O)COC(=O)c1ccc2c(c1)OCCO2
CC(C)(C)C1CCc2c(sc(N)c2C(N)=O)C1 (stereo unspecified)
Cc1ccc(C(=O)NC(=S)Nc2cccc3nsnc23)cc1
COCC(C)n1c(C)cc(C(=O)COC(=O)c2nn(C)c(=O)c3ccccc23)c1C (stereo unspecified)
O=C(NNc1ccc([N+](=O)[O-])cc1)C1CC2CCCC(C1)C2=O (stereo unspecified)
O=C(Nc1ccc2cccnc2c1)c1ccc(Br)cc1
CC(C)(O[C@@H]1O[C@H](CO)[C@@H](O)[C@H](O)[C@H]1O)[C@@H]1CC=C(C(=O)O)CC1
COCCN(C(=O)COC(=O)COc1ccc2c(c1)CCC2)c1c(N)n(Cc2ccccc2)c(=O)[nH]c1=O
COc1ccc(S(=O)(=O)c2c(O)c(C)cc(NS(=O)(=O)c3ccc(Cl)cc3)c2C(C)C)cc1

Activity change, negative = inhibition, inconclusive:
S=C(NN=C1CCN(Cc2ccccc2)CC1)NC1CCCCC1 -48.9% [inhibitor]

From PubChem BioAssay AID504339 (National Center for Advancing Translational Sciences (NCATS), 2011)
